Test results from ChEMBL document CHEMBL3352815, “Indolinone based LRRK2 kinase inhibitors with a key hydrogen bond” (Bioorg Med Chem Lett, 2014).

Experiments:
[1] = molecular target: Mitogen-activated protein kinase 14 (Homo sapiens) (UniProt Q16539); assay: Inhibition of human recombinant p38alpha kinase expressed Escherichia coli using Ulight-CFFKNIVTPRTPPPSQGK-amide substrate assessed as remaining enzyme activity at 1 uM after 60 mins relative to control
[2] = molecular target: Serine/threonine-protein kinase MARK1 (Homo sapiens) (UniProt Q9P0L2); assay: Inhibition of human recombinant MARK1 using Ulight-RRRSLLE substrate assessed as remaining enzyme activity at 1 uM after 30 mins relative to control
[3] = molecular target: Serine/threonine-protein kinase pim-2 (Homo sapiens) (UniProt Q9P1W9); assay: Inhibition of human recombinant Pim2 kinase expressed insect cells using CREBtide (CKRREILSRRPSYRK) substrate assessed as remaining enzyme activity at 1 uM after 60 mins relative to control
[4] = molecular target: Protein kinase C beta type (Homo sapiens) (UniProt P05771); assay: Inhibition of human recombinant PKCbeta2 using CREBtide (CKRREILSRRPSYRK) substrate assessed as remaining enzyme activity at 1 uM after 15 mins relative to control
[5] = molecular target: Fibroblast growth factor receptor 2 (Homo sapiens) (UniProt P21802); assay: Inhibition of human recombinant FGFR2 kinase using Ulight-CAGAGAIETDKEYYTVKD substrate assessed as remaining enzyme activity at 1 uM after 15 mins relative to control
[6] = molecular target: Serine/threonine-protein kinase SIK1 (Homo sapiens) (UniProt P57059); assay: Inhibition of human recombinant SIK expressed Sf21 cells using CREBtide(CKRREILSRRPSYRK) substrate assessed as remaining enzyme activity at 1 uM after 90 mins relative to control
[7] = molecular target: Inhibitor of nuclear factor kappa-B kinase subunit alpha (Homo sapiens) (UniProt O15111); assay: Inhibition of human recombinant IKKalpha expressed Sf21 cells using Ulight-IkappaB-alpha substrate assessed as remaining enzyme activity at 1 uM after 30 mins relative to control
[8] = species on record: Danio rerio; assay: Toxicity in zebrafish embryo at 20 uM after 24 hrs; format: organism-based; conditions: in vivo
Procedure, shortened: (§1)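 Zebrafish embryos collected and kept in E3 medium at 28 °C. Compound added at 24 hpf, and phenotypes (growth, tail morphology) were compared at 96 hpf against control embryos in 1% DMSO. Lethality was followed over time up to 120 hpf across a concentration series.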

[9] = molecular target: Aurora kinase A (Homo sapiens) (UniProt O14965); assay: Inhibition of human recombinant AurA/Aur2 kinase expressed Sf21 cells using Ulight-RRRSLLE substrate assessed as remaining enzyme activity at 1 uM after 15 mins relative to control
[10] = molecular target: Epidermal growth factor receptor (Homo sapiens) (UniProt P00533); assay: Inhibition of human recombinant EGFR kinase expressed insect cells using Ulight-CAGAGAIETDKEYYTVKD substrate assessed as remaining enzyme activity at 1 uM after 15 mins relative to control
[11] = molecular target: Ephrin type-A receptor 2 (Homo sapiens) (UniProt P29317); assay: Inhibition of human recombinant EphA2 kinase using Ulight-TK peptide substrate assessed as remaining enzyme activity at 1 uM after 30 mins relative to control
[12] = molecular target: Mitogen-activated protein kinase kinase kinase kinase 4 (Homo sapiens) (UniProt O95819); assay: Inhibition of human recombinant MAP4K4 using Ulight-FLGFTYVAP substrate assessed as remaining enzyme activity at 1 uM after 90 mins relative to control
[13] = molecular target: Mitogen-activated protein kinase 1 (Homo sapiens) (UniProt P28482); assay: Inhibition of human recombinant ERK2 expressed Escherichia coli using Ulight-CFFKNIVTPRTPPPSQGK-amide substrate assessed as remaining enzyme activity at 1 uM after 15 mins relative to control
[14] = Toxicity in zebrafish embryo assessed as lethality at 50 and 100 uM after 120 hrs; format: organism-based, Danio rerio; conditions: in vivo, read-out: Activity
Procedure, shortened: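 Zebrafish embryos kept in E3 medium at 28 °C; compound added at 24 hpf, with 1% DMSO embryos as control. Concentrations from 1 to 100 µM. Lethality recorded over time through 120 hpf, with phenotype also compared at 96 hpf.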

[15] = species on record: Danio rerio; assay: Toxicity in zebrafish embryo assessed as crooked tails at 30 uM after 24 hrs; format: organism-based; conditions: in vivo; procedure, shortened: as §1
[16] = molecular target: Fibroblast growth factor receptor 3 (Homo sapiens) (UniProt P22607); assay: Inhibition of human recombinant FGFR3 kinase using Ulight-CAGAGAIETDKEYYTVKD substrate assessed as remaining enzyme activity at 1 uM after 90 mins relative to control
[17] = species on record: Homo sapiens; assay: Inhibition of human recombinant PKA expressed Escherichia coli using Ulight-RRRSLLE substrate assessed as remaining enzyme activity at 1 uM after 10 mins relative to control
[18] = molecular target: Serine/threonine-protein kinase PAK 2 (Homo sapiens) (UniProt Q13177); assay: Inhibition of human recombinant PAK2 expressed Sf9 cells using Ulight-RRRSLLE substrate assessed as remaining enzyme activity at 1 uM after 60 mins relative to control
[19] = molecular target: Calcium/calmodulin-dependent protein kinase type II subunit alpha (Homo sapiens) (UniProt Q9UQM7); assay: Inhibition of human recombinant CaMK2alpha using Ulight-CGSGSGRPRTSSFAEG substrate assessed as remaining enzyme activity at 1 uM after 30 mins relative to control
[20] = molecular target: Ephrin type-B receptor 4 (Homo sapiens) (UniProt P54760); assay: Inhibition of human recombinant EphB4 kinase expressed insect cells using Ulight-TK peptide substrate assessed as remaining enzyme activity at 1 uM after 90 mins relative to control
[21] = molecular target: Mitogen-activated protein kinase 8 (Homo sapiens) (UniProt P45983); assay: Inhibition of human recombinant JNK1 expressed Escherichia coli using Ulight-CFFKNIVTPRTPPPSQGK-amide substrate assessed as remaining enzyme activity at 1 uM after 60 mins relative to control
[22] = molecular target: Tyrosine-protein kinase JAK3 (Homo sapiens) (UniProt P52333); assay: Inhibition of human recombinant JAK3 using Ulight-CAGAGAIETDKEYYTVKD substrate assessed as remaining enzyme activity at 1 uM after 60 mins relative to control
[23] = molecular target: Serine/threonine-protein kinase PAK 4 (Homo sapiens) (UniProt O96013); assay: Inhibition of human recombinant PAK4 expressed insect cells using Ulight-RRRSLLE substrate assessed as remaining enzyme activity at 1 uM after 30 mins relative to control
[24] = molecular target: Fibroblast growth factor receptor 1 (Homo sapiens) (UniProt P11362); assay: Inhibition of human recombinant FGFR1 kinase using Ulight-CAGAGAIETDKEYYTVKD substrate assessed as remaining enzyme activity at 1 uM after 60 mins relative to control
Chain of UniProt P11362 (P11362 whole entry, looked up): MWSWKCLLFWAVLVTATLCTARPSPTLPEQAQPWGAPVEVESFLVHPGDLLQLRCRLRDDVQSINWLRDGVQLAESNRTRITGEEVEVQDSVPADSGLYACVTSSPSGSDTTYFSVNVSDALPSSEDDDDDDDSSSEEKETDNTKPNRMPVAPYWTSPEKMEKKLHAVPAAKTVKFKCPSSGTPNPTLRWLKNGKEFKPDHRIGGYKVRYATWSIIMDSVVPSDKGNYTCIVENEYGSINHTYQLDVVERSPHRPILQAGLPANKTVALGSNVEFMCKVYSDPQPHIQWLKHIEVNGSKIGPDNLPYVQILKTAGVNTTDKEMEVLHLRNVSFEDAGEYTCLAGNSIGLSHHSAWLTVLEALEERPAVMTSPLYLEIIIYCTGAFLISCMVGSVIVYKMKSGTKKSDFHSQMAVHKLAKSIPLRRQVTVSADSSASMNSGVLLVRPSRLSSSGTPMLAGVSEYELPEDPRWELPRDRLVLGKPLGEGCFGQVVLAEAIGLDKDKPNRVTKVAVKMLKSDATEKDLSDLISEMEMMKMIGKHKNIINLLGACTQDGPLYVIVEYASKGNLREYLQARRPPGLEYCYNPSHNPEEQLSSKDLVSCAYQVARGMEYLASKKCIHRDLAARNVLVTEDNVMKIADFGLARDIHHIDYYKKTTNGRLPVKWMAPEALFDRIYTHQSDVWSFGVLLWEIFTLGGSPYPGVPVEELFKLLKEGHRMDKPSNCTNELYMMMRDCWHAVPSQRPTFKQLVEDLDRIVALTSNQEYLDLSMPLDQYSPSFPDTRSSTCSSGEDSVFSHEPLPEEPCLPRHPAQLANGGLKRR

Chain of UniProt P54760 (P54760 whole entry): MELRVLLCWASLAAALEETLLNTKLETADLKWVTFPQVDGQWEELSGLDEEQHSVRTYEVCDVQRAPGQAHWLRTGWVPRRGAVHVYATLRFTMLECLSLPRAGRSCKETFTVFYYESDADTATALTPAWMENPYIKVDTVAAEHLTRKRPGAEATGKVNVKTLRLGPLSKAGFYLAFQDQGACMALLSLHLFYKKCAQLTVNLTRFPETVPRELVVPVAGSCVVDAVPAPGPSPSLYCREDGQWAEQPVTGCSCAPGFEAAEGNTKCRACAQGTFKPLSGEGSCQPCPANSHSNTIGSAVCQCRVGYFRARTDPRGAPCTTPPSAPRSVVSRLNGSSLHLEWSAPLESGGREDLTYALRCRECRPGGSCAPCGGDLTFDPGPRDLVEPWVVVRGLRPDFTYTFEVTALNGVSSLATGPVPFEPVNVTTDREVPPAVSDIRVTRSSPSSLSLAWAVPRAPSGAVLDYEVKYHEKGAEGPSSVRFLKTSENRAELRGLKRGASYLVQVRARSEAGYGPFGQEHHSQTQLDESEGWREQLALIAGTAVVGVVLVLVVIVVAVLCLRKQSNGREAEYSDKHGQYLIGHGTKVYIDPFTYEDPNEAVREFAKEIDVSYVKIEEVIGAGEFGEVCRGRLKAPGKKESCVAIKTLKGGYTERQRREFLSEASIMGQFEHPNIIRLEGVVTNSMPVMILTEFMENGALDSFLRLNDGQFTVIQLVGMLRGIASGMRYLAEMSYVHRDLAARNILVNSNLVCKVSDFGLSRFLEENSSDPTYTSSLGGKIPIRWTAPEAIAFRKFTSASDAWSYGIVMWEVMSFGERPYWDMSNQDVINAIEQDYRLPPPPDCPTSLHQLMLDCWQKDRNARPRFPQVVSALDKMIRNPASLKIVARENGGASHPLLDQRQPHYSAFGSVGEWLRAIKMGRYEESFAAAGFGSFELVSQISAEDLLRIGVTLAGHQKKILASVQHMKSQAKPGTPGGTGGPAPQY
Chain of UniProt O95819 (O95819 whole entry, looked up): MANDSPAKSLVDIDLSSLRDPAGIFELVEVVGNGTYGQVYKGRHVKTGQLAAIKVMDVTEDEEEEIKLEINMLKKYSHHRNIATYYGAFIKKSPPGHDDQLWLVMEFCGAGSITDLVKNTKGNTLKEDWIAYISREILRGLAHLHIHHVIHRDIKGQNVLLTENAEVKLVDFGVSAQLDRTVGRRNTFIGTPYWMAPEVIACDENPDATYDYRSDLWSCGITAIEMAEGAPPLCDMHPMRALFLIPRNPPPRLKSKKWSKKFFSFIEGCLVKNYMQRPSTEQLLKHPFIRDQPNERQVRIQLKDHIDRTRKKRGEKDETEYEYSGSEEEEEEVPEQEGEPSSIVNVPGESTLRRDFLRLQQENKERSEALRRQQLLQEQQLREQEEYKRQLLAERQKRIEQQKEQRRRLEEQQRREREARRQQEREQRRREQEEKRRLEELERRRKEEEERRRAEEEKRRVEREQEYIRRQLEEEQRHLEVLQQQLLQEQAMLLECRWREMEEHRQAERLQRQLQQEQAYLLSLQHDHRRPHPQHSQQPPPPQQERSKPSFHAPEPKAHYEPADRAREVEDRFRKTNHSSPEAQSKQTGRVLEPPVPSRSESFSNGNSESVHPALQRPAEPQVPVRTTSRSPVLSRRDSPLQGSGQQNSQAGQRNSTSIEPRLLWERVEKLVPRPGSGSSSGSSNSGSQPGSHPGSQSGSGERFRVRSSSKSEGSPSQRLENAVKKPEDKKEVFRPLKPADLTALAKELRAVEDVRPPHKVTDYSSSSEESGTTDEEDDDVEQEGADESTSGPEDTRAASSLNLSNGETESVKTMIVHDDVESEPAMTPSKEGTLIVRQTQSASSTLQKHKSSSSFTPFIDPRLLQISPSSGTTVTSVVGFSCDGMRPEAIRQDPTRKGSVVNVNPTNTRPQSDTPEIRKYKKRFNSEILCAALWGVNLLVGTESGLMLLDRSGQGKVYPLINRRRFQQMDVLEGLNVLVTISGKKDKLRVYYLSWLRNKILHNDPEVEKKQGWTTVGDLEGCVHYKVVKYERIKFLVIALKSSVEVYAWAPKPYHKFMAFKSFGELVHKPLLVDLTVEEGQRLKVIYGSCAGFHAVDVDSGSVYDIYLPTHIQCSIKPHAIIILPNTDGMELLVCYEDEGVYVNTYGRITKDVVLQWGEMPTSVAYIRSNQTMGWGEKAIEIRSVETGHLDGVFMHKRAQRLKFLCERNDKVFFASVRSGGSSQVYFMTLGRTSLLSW
Chain of UniProt Q9P1W9 (Q9P1W9 whole entry, looked up): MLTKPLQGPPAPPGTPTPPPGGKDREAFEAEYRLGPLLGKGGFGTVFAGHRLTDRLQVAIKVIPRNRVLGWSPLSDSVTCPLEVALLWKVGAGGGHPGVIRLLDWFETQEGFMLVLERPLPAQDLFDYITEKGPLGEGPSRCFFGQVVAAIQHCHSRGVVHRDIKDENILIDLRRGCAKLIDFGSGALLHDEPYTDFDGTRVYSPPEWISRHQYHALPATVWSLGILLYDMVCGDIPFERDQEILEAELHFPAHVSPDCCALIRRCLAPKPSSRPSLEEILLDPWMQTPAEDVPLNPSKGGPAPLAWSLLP
Chain of UniProt O96013 (O96013 whole entry, looked up): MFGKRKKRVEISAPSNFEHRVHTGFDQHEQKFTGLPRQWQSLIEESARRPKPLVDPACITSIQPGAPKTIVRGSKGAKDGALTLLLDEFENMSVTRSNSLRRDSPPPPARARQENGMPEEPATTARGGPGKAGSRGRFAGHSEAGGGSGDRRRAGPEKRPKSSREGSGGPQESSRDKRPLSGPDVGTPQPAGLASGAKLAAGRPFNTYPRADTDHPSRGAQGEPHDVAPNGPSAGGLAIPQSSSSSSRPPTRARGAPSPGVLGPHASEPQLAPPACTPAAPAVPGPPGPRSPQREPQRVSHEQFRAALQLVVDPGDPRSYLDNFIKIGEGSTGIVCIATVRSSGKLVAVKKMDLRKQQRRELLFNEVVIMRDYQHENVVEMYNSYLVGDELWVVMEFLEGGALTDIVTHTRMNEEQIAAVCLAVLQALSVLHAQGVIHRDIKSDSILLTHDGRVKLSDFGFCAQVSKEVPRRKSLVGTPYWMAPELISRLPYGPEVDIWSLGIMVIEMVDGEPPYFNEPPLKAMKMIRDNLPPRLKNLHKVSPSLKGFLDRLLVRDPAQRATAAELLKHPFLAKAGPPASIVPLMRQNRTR
Chain of UniProt O15111 (O15111 whole entry): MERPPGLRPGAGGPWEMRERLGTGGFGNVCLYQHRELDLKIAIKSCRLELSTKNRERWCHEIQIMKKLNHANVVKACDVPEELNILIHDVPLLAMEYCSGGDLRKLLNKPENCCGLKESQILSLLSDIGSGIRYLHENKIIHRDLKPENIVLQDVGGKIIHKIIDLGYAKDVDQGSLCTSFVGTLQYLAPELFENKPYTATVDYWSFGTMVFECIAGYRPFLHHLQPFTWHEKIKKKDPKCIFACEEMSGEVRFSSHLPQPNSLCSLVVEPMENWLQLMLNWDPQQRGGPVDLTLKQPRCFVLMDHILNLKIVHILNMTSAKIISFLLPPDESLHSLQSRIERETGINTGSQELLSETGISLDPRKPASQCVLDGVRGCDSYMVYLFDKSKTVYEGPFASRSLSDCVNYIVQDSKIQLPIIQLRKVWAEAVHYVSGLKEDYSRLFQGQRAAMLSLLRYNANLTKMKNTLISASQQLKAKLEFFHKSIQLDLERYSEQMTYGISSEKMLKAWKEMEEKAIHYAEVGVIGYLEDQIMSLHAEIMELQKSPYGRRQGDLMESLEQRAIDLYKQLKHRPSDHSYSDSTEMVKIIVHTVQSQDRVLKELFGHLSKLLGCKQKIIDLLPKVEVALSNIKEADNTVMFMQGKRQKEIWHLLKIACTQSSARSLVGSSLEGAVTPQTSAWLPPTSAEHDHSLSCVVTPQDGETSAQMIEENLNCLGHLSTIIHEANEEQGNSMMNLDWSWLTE
Chain of UniProt P28482 (P28482 whole entry): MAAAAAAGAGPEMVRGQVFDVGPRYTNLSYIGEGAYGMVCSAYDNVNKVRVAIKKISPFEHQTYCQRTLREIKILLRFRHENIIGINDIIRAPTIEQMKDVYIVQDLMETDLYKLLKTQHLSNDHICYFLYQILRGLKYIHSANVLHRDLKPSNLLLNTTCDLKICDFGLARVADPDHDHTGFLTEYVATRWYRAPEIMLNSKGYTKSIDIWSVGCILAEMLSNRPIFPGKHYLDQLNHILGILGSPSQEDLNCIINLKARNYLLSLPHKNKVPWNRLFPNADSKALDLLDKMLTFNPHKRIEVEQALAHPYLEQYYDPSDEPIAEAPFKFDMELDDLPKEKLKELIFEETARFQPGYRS

`O=C1Nc2ccc(Cl)cc2/C1=C/c1cc(Br)c(O)c(Br)c1` gave an Activity [1] of 92%, an Activity [2] of 86% and an Activity [3] of 29%. The Activity [4] was 85%, the Activity [5] was 91% and the Activity [6] was 92%. For the same compound, the Activity [7] was 95%, the Activity [8] was “Toxic” and the Activity [9] was 73%. It also gave an Activity [10] of 58%, an Activity [11] of 90% and an Activity [12] of 4%. For the same compound, the Activity [13] was 100%, the mortality at 120 h [14] was 100% and the Activity [15] was “Toxic”. The Activity [16] was 82%, the Activity [17] was 103% and the Activity [18] was 76%. It also gave an Activity [19] of 105%, an Activity [20] of 108% and an Activity [21] of 104%. For the same compound, the Activity [22] was 52%, the Activity [23] was 86% and the Activity [24] was 101%.
